# The list shows a part of the results. The full chains were built here from the parent and the listed change. Inactive controls read about 0.05.
# B1: TEV protease; numbered along this chain (parent)
# chain: MGESLFKGPRDYNPISSSICHLTNESDGHTTSLYGIGFGPFIITNKHLFRRNNGTLVVQSLHGVFKVKDTTTLQQHLVDGRDMIIIRMPKDFPPFPQKLKFREPQREERICLVTTNFQTKSMSSMVSDTSCTFPSGDGIFWKHWIQTKDGQCGSPLVSTRDGFIVGIHSASNFTNTNNYFTSVPKNFMELLTNQEAQQWVSGWRLNADSVLWGGHKVFMVKPEEPFQPVKEATQL
# Variants of: B1
# Assay: raw area under fraction-flipped curve 0-4 h after induction (AUC4h, not background-subtracted), DNA-recorder readout of cleavage of the substrate (dimensionless); higher = more cleavage of the substrate by the protease variant
# Conditions: temperature: 34 °C; time window: 0-4 h after rhamnose induction
# Description: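 In vivo DNA recorder in E. coli TOP10(DE3) ΔrhaA at 34 °C. Each TEVp single-site mutant (parent TEVp 0) is paired with a single-site variant of the 7-mer TEVs (canonical ENLYFQ|S). The substrate sits between flexible linkers in a Bxb1-sfGFP-TEVs-SsrA fusion, so cleavage stabilises Bxb1 and speeds flipping of a recombination array, read by NGS. The value is the raw area under the fraction-flipped curve over 0-4 h after rhamnose induction (AUC4h), with ≥20 reads per time point. It is not background-subtracted; inactive controls average about 0.047.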
# 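Note: Bxb1 expression induced with 0.2% (w/v) L-rhamnose at OD600 near 0.5, cultures sampled hourly, flipped fraction per protease–substrate barcode pair counted by paired-end Illumina sequencing.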
variant,measurement,value
P96F,area with substrate ENLYFAS,0.0636
same,area with substrate ENLYFCS,0.0511
same,area with substrate ENLYFDS,0.0451
same,area with substrate ENLYFES,0.0606
same,area with substrate ENLYFIS,0.0517
same,area with substrate ENLYFMS,0.0507
same,area with substrate ENLYFNS,0.058
same,area with substrate ENLYFPS,0.0577
same,area with substrate ENLYFRS,0.0767
same,area with substrate ENLYFSS,0.0616
same,area with substrate ENLYFWS,0.0576
same,area with substrate ENLYFYS,0.0535
P96L,area with substrate ENLYFAS,0.0602
same,area with substrate ENLYFCS,0.0572
same,area with substrate ENLYFFS,0.0642
same,area with substrate ENLYFGS,0.0621
same,area with substrate ENLYFIS,0.0581
same,area with substrate ENLYFMS,0.0665
same,area with substrate ENLYFPS,0.0633
same,area with substrate ENLYFRS,0.0685
same,area with substrate ENLYFSS,0.0623
same,area with substrate ENLYFVS,0.0457
same,area with substrate ENLYFYS,0.0556
F117N,area with substrate ENLYFAS,0.0679
same,area with substrate ENLYFDS,0.0467
same,area with substrate ENLYFES,0.101
same,area with substrate ENLYFFS,0.066
same,area with substrate ENLYFHS,0.058
same,area with substrate ENLYFIS,0.0711
same,area with substrate ENLYFKS,0.0651
same,area with substrate ENLYFMS,0.072
same,area with substrate ENLYFNS,0.0645
same,area with substrate ENLYFRS,0.0419
same,area with substrate ENLYFTS,0.0542
same,area with substrate ENLYFVS,0.0532
same,area with substrate ENLYFWS,0.0234
same,area with substrate ENLYFYS,0.006
Q105W,area with substrate ENLYFAS,0.0566
same,area with substrate ENLYFCS,0.0481
same,area with substrate ENLYFDS,0.0605
same,area with substrate ENLYFES,0.0627
same,area with substrate ENLYFFS,0.0777
same,area with substrate ENLYFHS,0.0657
same,area with substrate ENLYFIS,0.0622
same,area with substrate ENLYFKS,0.0569
same,area with substrate ENLYFMS,0.0627
same,area with substrate ENLYFNS,0.0685
same,area with substrate ENLYFPS,0.0585
same,area with substrate ENLYFRS,0.0549
same,area with substrate ENLYFSS,0.0427
same,area with substrate ENLYFTS,0.0646
same,area with substrate ENLYFVS,0.0791
same,area with substrate ENLYFWS,0.0517
same,area with substrate ENLYFYS,0.0673
K120P,area with substrate ENLYFAS,0.0577
same,area with substrate ENLYFDS,0.0791
same,area with substrate ENLYFES,0.0638
same,area with substrate ENLYFFS,0.0693
same,area with substrate ENLYFGS,0.0608
same,area with substrate ENLYFIS,0.0462
same,area with substrate ENLYFMS,0.0595
same,area with substrate ENLYFNS,0.0576
same,area with substrate ENLYFPS,0.0535
same,area with substrate ENLYFSS,0.0537
same,area with substrate ENLYFTS,0.0608
same,area with substrate ENLYFWS,0.0549
same,area with substrate ENLYFYS,0.0635
K120G,area with substrate ENLYFAS,0.0468
same,area with substrate ENLYFES,0.0649
same,area with substrate ENLYFFS,0.0796
same,area with substrate ENLYFIS,0.0632
same,area with substrate ENLYFMS,0.0507
same,area with substrate ENLYFNS,0.0765
same,area with substrate ENLYFPS,0.0535
same,area with substrate ENLYFSS,0.0373
same,area with substrate ENLYFTS,0.0646
K120W,area with substrate ENLYFAS,0.0539
same,area with substrate ENLYFDS,0.0561
same,area with substrate ENLYFES,0.0539
same,area with substrate ENLYFFS,0.0888
same,area with substrate ENLYFHS,0.0235
same,area with substrate ENLYFIS,0.0546
same,area with substrate ENLYFLS,0.0512
same,area with substrate ENLYFMS,0.068
same,area with substrate ENLYFRS,0.0462
same,area with substrate ENLYFSS,0.0636
same,area with substrate ENLYFTS,0.0499
same,area with substrate ENLYFVS,0.0743
K120Y,area with substrate ENLYFAS,0.0633
same,area with substrate ENLYFDS,0.0791
same,area with substrate ENLYFES,0.0589
same,area with substrate ENLYFFS,0.0452
same,area with substrate ENLYFGS,0.0702
same,area with substrate ENLYFHS,0.0709
same,area with substrate ENLYFIS,0.0506
same,area with substrate ENLYFKS,0.0582
same,area with substrate ENLYFMS,0.0664
same,area with substrate ENLYFNS,0.0682
same,area with substrate ENLYFPS,0.0767
same,area with substrate ENLYFRS,0.0617
same,area with substrate ENLYFSS,0.0448
same,area with substrate ENLYFTS,0.0544
same,area with substrate ENLYFVS,0.0563
same,area with substrate ENLYFWS,0.0807
same,area with substrate ENLYFYS,0.0622
K120H,area with substrate ENLYFAS,0.0638
same,area with substrate ENLYFCS,0.0646
same,area with substrate ENLYFDS,0.0472
same,area with substrate ENLYFES,0.0688
same,area with substrate ENLYFFS,0.0671
same,area with substrate ENLYFIS,0.0521
same,area with substrate ENLYFMS,0.0678
same,area with substrate ENLYFNS,0.0659
same,area with substrate ENLYFPS,0.0477
same,area with substrate ENLYFSS,0.0469
same,area with substrate ENLYFTS,0.0517
same,area with substrate ENLYFVS,0.0621
same,area with substrate ENLYFYS,0.0644
Q75P,area with substrate ENLYFAS,0.0616
same,area with substrate ENLYFCS,0.0537
same,area with substrate ENLYFDS,0.0554
same,area with substrate ENLYFES,0.0585
same,area with substrate ENLYFFS,0.0637
same,area with substrate ENLYFGS,0.0586
same,area with substrate ENLYFHS,0.0794
same,area with substrate ENLYFIS,0.0472
same,area with substrate ENLYFKS,0.0549
same,area with substrate ENLYFLS,0.0555
same,area with substrate ENLYFMS,0.0599
same,area with substrate ENLYFNS,0.0438
same,area with substrate ENLYFPS,0.0486
same,area with substrate ENLYFRS,0.0537
same,area with substrate ENLYFSS,0.0557
same,area with substrate ENLYFTS,0.0579
same,area with substrate ENLYFVS,0.0636
same,area with substrate ENLYFWS,0.0479
same,area with substrate ENLYFYS,0.0581
V64L,area with substrate ENLYFAS,0.0664
same,area with substrate ENLYFCS,0.0513
same,area with substrate ENLYFES,0.0549
same,area with substrate ENLYFFS,0.0649
same,area with substrate ENLYFHS,0.0552
same,area with substrate ENLYFIS,0.109
same,area with substrate ENLYFKS,0.0717
same,area with substrate ENLYFLS,0.0739
same,area with substrate ENLYFMS,0.0519
same,area with substrate ENLYFNS,0.0595
same,area with substrate ENLYFPS,0.0541
same,area with substrate ENLYFRS,0.0203
same,area with substrate ENLYFTS,0.0422
same,area with substrate ENLYFWS,0.0512
same,area with substrate ENLYFYS,0.0388
V64R,area with substrate ENLYFAS,0.0663
same,area with substrate ENLYFFS,0.0674
same,area with substrate ENLYFGS,0.0478
same,area with substrate ENLYFHS,0.0624
same,area with substrate ENLYFIS,0.0616
same,area with substrate ENLYFMS,0.0547
same,area with substrate ENLYFPS,0.0532
same,area with substrate ENLYFRS,0.0615
same,area with substrate ENLYFSS,0.0581
same,area with substrate ENLYFTS,0.0588
V64P,area with substrate ENLYFAS,0.0442
same,area with substrate ENLYFCS,0.0342
same,area with substrate ENLYFES,0.0615
same,area with substrate ENLYFHS,0.0387
same,area with substrate ENLYFIS,0.0463
same,area with substrate ENLYFLS,0.0427
same,area with substrate ENLYFMS,0.0645
same,area with substrate ENLYFNS,0.0758
same,area with substrate ENLYFPS,0.0564
same,area with substrate ENLYFVS,0.0475
same,area with substrate ENLYFYS,0.0456
